Our source for the cell count values is the supplement of paper PMC4604168 (melanoma cell lines).

This is one part of the list. Most values come without repeats; read them as rough.

Among the test systems are MZ2-MEL; MeWo; RPMI7951; RVH-421; SkMel28; SkMel2; SkMel30; SkMel5; UACC257; UACC62.
What all share (assay): cell count relative to DMSO control; melanoma cells; higher = more viable cells
Holding throughout (details): library dose: low library concentration; 72 h
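Further: cell number obtained by counting DAPI-stained nuclei in high-throughput microscope images with image analysis software, screen run in 1,536-well plates.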

On to `Cn1c(=O)n(-c2ccc(C(C)(C)C#N)cc2)c2c3cc(-c4cnc5ccccc5c4)ccc3ncc21` + O=c1cc(-c2cccc3c2Sc2ccccc2S3)oc(N2CCOCC2)c1 [KU55933] (first compound 0.004 µM, partner dose 1 µM), for which the cell count in the assay on MZ2-MEL came to 110%; in the assay with MeWo it was 82.9%; in the assay on RPMI7951, 92.4%; with RVH-421, 99.3%; in the assay on SkMel28, 72.1%; in the assay on SkMel2, 98.2%. Further, the cell count in the assay with SkMel30 was 81.8%; in the assay with SkMel5, 111%; in the assay with UACC257, 93%; in the assay with UACC62 it was 90.5%.

As for `Cc1cc(Nc2cc(N3CCN(C)CC3)nc(/C=C/c3ccccc3)n2)n[nH]1` + CC(C)(C)c1cnc(CSc2cnc(NC(=O)C3CCNCC3)s2)o1 [SNS-032] (first compound 0.04 µM, partner dose 0.01 µM), the cell count in the assay with MZ2-MEL came to 92.4%; with MeWo it was 90.8%; in the assay on RPMI7951, 95%; in the assay with RVH-421, 86.5%; in the assay on SkMel28 it was 92%; with SkMel2 it was 102%. Further, the cell count in the assay on SkMel30 was 112%; in the assay with SkMel5, 106%; with UACC257, 83.1%; in the assay with UACC62, 72.9%.

For the compound `Cn1c(=O)n(-c2ccc(C(C)(C)C#N)cc2)c2c3cc(-c4cnc5ccccc5c4)ccc3ncc21` + O=S(=O)(c1ccccc1)N(CC(F)(F)F)c1ccc(C(O)(C(F)(F)F)C(F)(F)F)cc1 [T0901317] (first compound 0.004 µM, partner dose 1.4 µM), the cell count is 101% with MZ2-MEL; 74.7% with MeWo; 79.9% with RPMI7951; 60.1% in the assay with RVH-421; 76.7% with SkMel28; 86.1% in the assay with SkMel2. Besides, the cell count was 69.9% in the assay with SkMel30, 98.3% in the assay on SkMel5, 80.7% in the assay on UACC257 and 76.2% with UACC62.

As to `Cc1cn(-c2cc(NC(=O)c3ccc(C)c(Nc4nccc(-c5cccnc5)n4)c3)cc(C(F)(F)F)c2)cn1` [nilotinib] + O=C(Nc1ccccc1)c1cc([N+](=O)[O-])ccc1Cl [GW9662] (first compound 0.2 µM, partner dose 2 µM), the cell count was determined as 93.4% with MZ2-MEL; 96.3% in the assay on MeWo; 87.2% in the assay on RPMI7951; 96.5% with RVH-421; 96.5% in the assay with SkMel28; 92.4% in the assay on SkMel2. Also, the cell count with SkMel30 was determined as 83.3%; with SkMel5, 91%; with UACC257 it was 70.5%; with UACC62, 86.9%.

As for `Cc1cn(-c2cc(NC(=O)c3ccc(C)c(Nc4nccc(-c5cccnc5)n4)c3)cc(C(F)(F)F)c2)cn1` [nilotinib] + COc1ccc2c(c1)CCC1C2CCC2(C)C(NCCCCCCN3C(=O)C=CC3=O)CCC12 [U73122] (first compound 0.2 µM, partner dose 0.4 µM), the cell count with MZ2-MEL is 89%; in the assay with MeWo it was 115%; with RPMI7951 it was 76.4%; in the assay with RVH-421, 93.6%; with SkMel28, 116%; in the assay on SkMel2 it was 90.7%. Also, the cell count amounted to 87.1% in the assay with SkMel30, 122% with SkMel5, 106% in the assay on UACC257 and 96.5% in the assay on UACC62.

`Cc1cc(Nc2cc(N3CCN(C)CC3)nc(/C=C/c3ccccc3)n2)n[nH]1` + CO[C@@H]1[C@H](N(C)C(=O)c2ccccc2)C[C@H]2O[C@]1(C)n1c3ccccc3c3c4c(c5c6ccccc6n2c5c31)C(=O)NC4 [Midostaurin] (first compound 0.04 µM, partner dose 0.08 µM): the cell count with MZ2-MEL is 93.1%; in the assay on MeWo it was 93%; in the assay on RPMI7951, 86.5%; in the assay on RVH-421, 79.8%; in the assay with SkMel28, 84.6%; in the assay with SkMel2, 92.2%. For the same compound, the cell count stood at 101% with SkMel30, 85.9% in the assay on SkMel5, 80.4% in the assay on UACC257 and 103% with UACC62.

On to `COc1ccc(C2=N[C@@H](c3ccc(Cl)cc3)[C@@H](c3ccc(Cl)cc3)N2C(=O)N2CCNC(=O)C2)c(OC(C)C)c1` [Nutlin-3] + COc1cc2c(Oc3ccc4[nH]c(C)cc4c3F)ncnc2cc1OCCCN1CCCC1 [cediranib] (first compound 0.1 µM, partner dose 0.4 µM), for which the cell count in the assay on MZ2-MEL came out at 109%; in the assay on MeWo, 99%; in the assay on RPMI7951 it was 109%; with RVH-421, 98.4%; with SkMel28, 86.4%; in the assay with SkMel2, 101%. For the same compound, the cell count in the assay on SkMel30 worked out at 95.1%; in the assay with SkMel5 it was 106%; in the assay with UACC257, 95.9%; in the assay on UACC62, 85.1%.

As for `Cc1cn(-c2cc(NC(=O)c3ccc(C)c(Nc4nccc(-c5cccnc5)n4)c3)cc(C(F)(F)F)c2)cn1` [nilotinib] + NCC(=O)Nc1ccc(-n2nc(C(F)(F)F)cc2-c2ccc3c(ccc4ccccc43)c2)cc1 [OSU03012] (first compound 0.2 µM, partner dose 1 µM), the cell count in the assay on MZ2-MEL was determined as 88.4%; in the assay on MeWo it was 53.9%; in the assay on RPMI7951, 77%; in the assay with RVH-421 it was 87%; in the assay with SkMel28, 89.3%; in the assay on SkMel2, 83.4%. Moreover, the cell count worked out at 52.4% in the assay with SkMel30, 102% with SkMel5, 84.1% in the assay with UACC257 and 83.5% in the assay on UACC62.

As to `Cc1cn(-c2cc(NC(=O)c3ccc(C)c(Nc4nccc(-c5cccnc5)n4)c3)cc(C(F)(F)F)c2)cn1` [nilotinib] + COc1ccc(-c2ccc3c(N4CCOCC4)nc(N4C[C@@H](C)O[C@@H](C)C4)nc3n2)cc1CO [KU0063794] (first compound 0.2 µM, partner dose 0.02 µM), the cell count in the assay with MZ2-MEL turned out to be 90.2%; with MeWo, 107%; in the assay on RPMI7951 it was 95.7%; with RVH-421, 110%; with SkMel28, 91.4%; in the assay on SkMel2, 98.4%. Also, the cell count came to 91.8% with SkMel30, 109% with SkMel5, 72.4% with UACC257 and 85.6% in the assay on UACC62.

Consider `Cc1cc(Nc2cc(N3CCN(C)CC3)nc(/C=C/c3ccccc3)n2)n[nH]1` + COc1cc2c(Oc3ccc4[nH]c(C)cc4c3F)ncnc2cc1OCCCN1CCCC1 [cediranib] (first compound 0.04 µM, partner dose 0.4 µM), for which the cell count with MZ2-MEL stood at 97.1%; in the assay on MeWo, 99.4%; with RPMI7951 it was 97.6%; in the assay on RVH-421 it was 89.5%; in the assay with SkMel28, 74.6%; with SkMel2 it was 98.8%. The cell count in the assay on SkMel30 was determined as 99.6%; in the assay on SkMel5 it was 113%; in the assay on UACC257, 87.9%; in the assay on UACC62, 78%.
